“And” between values parts separate entries of the source, which are not always exact repeats. Equal values may be shown once. The campaign covered roughly 420,000 compounds. About 64,000 (15%) were called active. Inconclusive results, whose numbers are uncertain, are shown with a selection of clear calls. The call rests on the fitted dose curve; in most records, active means well fitted inhibition curve with a large enough effect; inconclusive means small, poorly fitted or top-dose-only effect; inactive means flat fitted curve, though single readings scatter. Potencies beside an inconclusive call are fits to weak or partial responses and may not hold up.
Test: qHTS for Inhibitors of human tyrosyl-DNA phosphodiesterase 1 (TDP1): qHTS in cells in absence of CPT; further: nearly all actives have a fitted effect of over 55% in size
Settings: DT40 Tdp1-/- hTDP1 cells, no CPT, ATP luminescence, 48 h; activity change, negative = growth inhibition: at 46.2 µM (top of the series) unless noted
Method in brief: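 Growth of hTDP1-complemented DT40 Tdp1-knockout cells is measured by ATP luminescence after at least 48 hr compound exposure at 37 °C, with DMSO substituting for the 20 nM CPT used in the parallel screen.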
On the % scale 0 is the no-effect control and ±100 the full control effect; potency means the concentration at half of the fitted maximal effect; tags describe the fitted curve by direction and shape.

Compound | Potency | activity change, negative = growth inhibition
O=C(c1cccc(C(F)(F)F)c1)C1CCCN(C(=O)CCc2cnccn2)C1 (stereo not drawn) | inconclusive: 10.3 µM [inhibitor, partial curve] | 
COc1ccc(S(=O)(=O)CCC(=O)Nc2c(C)cccc2C)cc1 | inactive | 
C#CCOCCOCCOCCNc1nc(N2CCOCC2)nc(N2CCN(C(=O)[C@H](CCC(=O)O)n3cc([C@@H](N)CCCCN)nn3)CC2)n1 | inactive | 
Cc1ccc(OCCC(=O)Nc2ccc(C)c(S(=O)(=O)N3CCOCC3)c2)cc1 | inconclusive: 29.1 µM [inhibitor, single point] | 
O=C(NCCc1ccc(Cl)cc1)c1ccc2ccccc2n1 | inconclusive: 20.6 µM [inhibitor, single point] | 
COc1cccc(Cn2nnc3c(=O)[nH]c(C4CCCN(C(=O)c5ccccc5Cl)C4)nc32)c1 (stereo not drawn) | inconclusive: 29.1 µM [inhibitor, single point] and inconclusive: 25.9 µM [inhibitor, single point] | 
CCN(CC)CCNC(=O)c1[nH]c2ccc(OCc3ccccc3)cc2c1C | inconclusive: 18.4 µM [inhibitor, single point] | 
Cc1ccc(NCC(=O)N/N=C/c2cccn2C)cc1 | inconclusive: 6.51 µM [inhibitor, single point] | 
Cc1nc(N)ncc1Sc1ccc(Cl)cc1 | inconclusive: 29.1 µM [inhibitor, single point] | 
CN(C)c1ccc(C(=O)Nc2ccc(S(=O)(=O)NC3=NCCCCC3)cc2)cc1 | inactive | 
O=C1C(=C2CCCCC2)SC(=S)N1Cc1ccco1 | active: 16.4 µM | 
Cc1cc2nc(C3CCN(C(=S)NCC(C)C)CC3)[nH]c2cc1C | inactive | 
O=C(CSc1n[nH]c(-c2ccco2)n1)Nc1ccccc1F |  | inconclusive: -43.2% [inhibitor]
Cc1ccc(-c2csc3ncnc(Sc4nnc(CN5CCCCCC5=O)o4)c23)cc1 | active: 6.51 µM | 
CCS(=O)c1ccccc1C(=O)OC(C)C(=O)Nc1ccc(S(=O)(=O)N2CCCC2)cc1 (stereo not drawn) | inconclusive: 16.4 µM [inhibitor, partial curve] | 
O=C(COC(=O)c1ccc2c(c1)OCCO2)NCc1ccccc1Cl | inactive | 
O=C(c1ccc2ccccc2c1)C1CCCN(C(=O)c2cnccn2)C1 (stereo not drawn) | inactive | 
CCOC(=O)c1sc(NC(=O)c2cc(S(=O)(=O)N3CCOCC3)ccc2C)nc1C | inconclusive: 14.6 µM [inhibitor, single point] | 
O=[N+]([O-])c1ccc(NC2CCN(Cc3ccccc3)CC2)c([N+](=O)[O-])c1 | active: 20.6 µM | 
CCOC(=O)c1c(-c2ccccc2)csc1NC(=O)CSc1nc(N)cc(N)n1 | active: 8.2 µM | 
CC(C)(C)NC(=O)CCCSc1nc2ccccc2s1 | inconclusive: 29.1 µM [inhibitor, single point] | 
Cc1onc(-c2c(Cl)cccc2Cl)c1C(=O)NC(=S)Nc1sc2c(c1C(N)=O)CCC(C)C2 (stereo not drawn) | inconclusive: 8.2 µM [inhibitor, partial curve] | 
CSc1nc(N2CCOCC2)nc2ccc(C)cc12 | inconclusive: 29.1 µM [inhibitor, single point] | 

Compound | Potency | activity change, negative = growth inhibition
CCOC(=O)c1cc(-c2sc(NC(=O)c3ccccc3)nc2C)n(Cc2ccccc2)n1 | active: 18.4 µM | 
CCN1CCN(C(=O)c2ccc(CNS(=O)(=O)c3cccc(OC)c3)cc2)CC1 | inactive | 
CCCCNC(=O)C[C@@H]1C[C@@]2(C(=O)OCC)CCC=C2N(Cc2cccc3ccccc23)C1=O | active: 16.4 µM | 
CCC1CN(Cc2ccc(COC)o2)Cc2cc(OC)ccc2O1 (stereo not drawn) | inactive | 
O=C1c2ccccc2/C(=C\c2ccc(Br)s2)N1c1ccccc1 | inconclusive: 10.3 µM [inhibitor, partial curve] | 
CCn1ncc(/C=N/NC(=O)c2ccc3c(c2)OCO3)c1C | inconclusive: 29.1 µM [inhibitor, single point] | 
O=C(NCC1CCCO1)C(c1ccncc1)N(Cc1ccc(F)cc1)C(=O)CN1C(=O)c2ccccc2S1(=O)=O (stereo not drawn) | inconclusive: 18.4 µM [inhibitor, single point] | 
COc1ccccc1S(=O)(=O)Cc1ccc(C(=O)N2CCN(c3cc(Cl)ccc3C)CC2)o1 | active: 8.2 µM | 
O=C(c1cccs1)N1C[C@@H](n2cc(C3CC3)nn2)[C@H](O)C[C@@H]1c1ccccc1 | inconclusive: 8.2 µM [inhibitor, partial curve] | 
C=CCC(NCc1ccco1)c1ccc(OC)cc1 (stereo not drawn) | inactive | 
C=C1C2=C(C(=O)N1OC)[C@@H](O)[C@@](C)(O)[C@@H](CCCCC)O2 | active: 13 µM | 
COC(=O)c1c(-c2ccc(Cl)cc2)noc1N1CCN(c2ccccc2OC)CC1 | inconclusive: 29.1 µM [inhibitor, single point] | 
O=C(Nc1ccc(N2CCOCC2)cc1)c1cc(-c2ccncc2)nc2ccccc12 | inconclusive: 20.6 µM [inhibitor, partial curve, poor fit] | 
Cc1c(C)c(C)c(S(=O)(=O)NCCc2ccncc2)c(C)c1C | inconclusive: 29.1 µM [inhibitor, single point] | 
COc1ccc(OC)c(CNC(=O)CCC(=O)N2Cc3cccc(OC)c3Oc3ncccc32)c1 | inactive | 
NS(=O)(=O)c1ccc(CCNC(=O)c2cc(-c3ccccn3)nc3ccc(Br)cc23)cc1 | inconclusive: 29.1 µM [inhibitor, single point] | 
O=C(c1cccc(Cl)c1)N1CCC(C(=O)N2CCN(Cc3ccccc3)CC2)CC1 | inconclusive: 16.4 µM [inhibitor, single point] | 
C=CCNc1nc2cc(-c3ccc(C(=O)N4CCOCC4)cc3)sc2c(=O)n1C | inconclusive: 18.4 µM [inhibitor, single point] | 
Cc1cc(NC(=O)CCC(=O)N(Cc2ccccc2)C(C(=O)NC2CCCC2)c2ccco2)no1 (stereo not drawn) | inconclusive: 29.1 µM [inhibitor, single point] | 
CC1(C(=O)Nc2ccc3c(c2)OCCO3)CCN1C(=O)C1(c2ccc(Cl)cc2)CCC1 (stereo not drawn) | inconclusive: 32.6 µM [inhibitor, single point] | 
COc1ccc(OC)c(S(=O)(=O)n2ccc(C)n2)c1 |  | inconclusive: -32.3% [inhibitor]
O=C(Cn1nc(C(=O)O)c2ccccc2c1=O)c1cc(F)ccc1F | inconclusive: 29.1 µM [inhibitor, single point] | 
CCOc1ccc2c(c1)c(=O)c(C(=O)c1ccc(CC)cc1)cn2CC(=O)Nc1cccc(Cl)c1 | inconclusive: 4.61 µM [inhibitor, single point] | 

Compound | Potency | activity change, negative = growth inhibition
O=C(Nc1cnn(Cc2ccc(F)cc2)c1)c1cnn2c(C(F)F)cc(-c3ccccc3)nc12 | inconclusive: 29.1 µM [inhibitor, single point] | 
COCc1cc(C)nc(SCC(=O)Nc2cccc(C)c2)c1C#N | inactive | 
Cc1ccc2occ(CC(=O)N(Cc3ccc(Cl)cc3)Cc3ccco3)c2c1 | active: 23.1 µM | 
O=C(NC(=S)NCc1ccc(-c2nc3ccccc3s2)cc1)c1ccco1 | inconclusive: 23.1 µM [inhibitor, single point] | 
O=c1cc(CO)oc(CN2CCC(Cc3ccccc3)CC2)c1O | inactive | 
CCOc1ccc(OCC)c(NC(=O)C2CCN(S(=O)(=O)c3ccc4c(c3)CC(C)N4C(C)=O)CC2)c1 (stereo not drawn) | inconclusive: 29.1 µM [inhibitor, single point] and inconclusive: 23.1 µM [inhibitor, single point] | 
COc1ccc(CCNc2ccc(C(CC(N)=O)NC(=O)c3cc(OC)ccc3OC)cc2[N+](=O)[O-])cc1 (stereo not drawn) | inconclusive: 29.1 µM [inhibitor, single point] | 
O=C(NC(=S)N1CCCCC1)C12CC3CC(CC(C3)C1)C2 | inconclusive: 29.1 µM [inhibitor, single point] | 
COCCNC(=O)c1onc(CSc2ccc(F)cc2)c1C(=O)NCCOC | inactive | 
NC1CCc2ccccc21 (stereo not drawn) | inconclusive: 35.5 µM [inhibitor, single point] | 
CN1CCN(C2=C(Cl)C(=O)N(c3ccc(Cl)cc3)C2=O)CC1 |  | inconclusive: -33.2% [inhibitor]
COc1ccc(-c2cc(CNS(=O)(=O)c3ccccc3)on2)cc1 | inconclusive: 23.1 µM [inhibitor, single point] | 
Oc1c(C=C2N=c3ccccc3=N2)sc(=S)n1-c1ccccc1 | inconclusive: 13 µM [inhibitor, partial curve, poor fit] | 
Cc1ccc(C(=O)CSc2nnc(COc3cccc4cccnc34)o2)cc1 | active: 23.1 µM | 
C/C(=N\NC(=O)c1ccco1)c1ccc(-c2ccccc2)cc1 | inactive | 
O=C(CN1CCN(C/C=C/c2ccccc2)CC1)Nc1cc([N+](=O)[O-])ccc1Cl | active: 25.9 µM | 
CC1Cc2ccccc2N1C(=O)CCn1c(=O)oc2ccccc21 (stereo not drawn) | inconclusive: 29.1 µM [inhibitor, single point] | 
Cc1cc(N/N=C/c2ccccc2Br)nc2ccccc12 | inconclusive: 29.1 µM [inhibitor, single point] | 
COc1ccc2c(c1)CCc1c(C(=O)NCCCn3ccnc3)noc1-2 | inconclusive: 25.9 µM [inhibitor, partial curve] | 
C=CCN(c1ccc(F)cc1)S(=O)(=O)c1cc(C(=O)NC2CC2)ccc1Cl | active: 20.6 µM | 
CCN(CC)C(=O)c1oc2ccc(S(=O)(=O)N3CCCCCC3)cc2c1C | active: 23.1 µM | 
O=c1c(-c2ccc(F)cc2)nc2cnc(Nc3ccccc3)nc2n1Cc1cccs1 | inconclusive: 2.91 µM [inhibitor, partial curve, poor fit] | 
